Laboratory results published in PubChem BioAssay AID1963576 (National Center for Advancing Translational Sciences (NCATS), 2024).
In all, about 46,000 compounds went through this assay and about 60 (0.1%) were called active. Not shown: some 3% with an inconclusive outcome. The call rests on the fitted dose curve; in most records, active means well fitted inhibition curve with a large enough effect; inconclusive means small, poorly fitted or top-dose-only effect; inactive means no such curve, though single readings can be large or run the other way. Some of the results follow.

test: Primary qHTS assay for Inhibitors of ovarian cancer metastasis using an organotypic tumor microenvironment (TME) model.; further: nearly all actives have a fitted effect of over 65% in size; details: SKOV3ip1-GFP adhesion/invasion on 3D omental model, fluorescence; series mostly up to 45.8 µM; activity change, negative = inhibition: at the top concentration
From the text: PI: Ernst Lengyel MD., Ph.D. Department of Obstetrics and Gynecology, Section of Gynecologic Oncology University of Chicago Medicine, Chicago, Illinois. The tumor microenvironment (TME) is a key determinant of metastatic efficiency. We performed a quantitative high-throughput screen (qHTS) of diverse medicinal chemistry tractable scaffolds (44,420 compounds) and pharmacologically active small molecules (386 compounds) using a layered organotypic, robust assay representing the ovarian cancer metastatic TME. This 3D model contains primary human mesothelial cells, fibroblasts, and extracellular matrix, to which fluorescently labeled ovarian cancer cells are added. Initially, 100 compounds inhibiting ovarian cancer adhesion/invasion to the 3D model in a dose-dependent manner were identified. Of those, eight compounds were confirmed active in five high-grade serous ovarian cancer cell lines and were further validated in secondary in vitro and in vivo biological assays. […] Specifically, NCGC00117362 and PP-121 inhibited ovarian cancer adhesion, invasion, and proliferation, whereas milciclib inhibited ovarian cancer invasion and proliferation. […] To evaluate the clinical potential of NCGC00117362, structure - activity relationship studies were performed. […] The three compounds identified have promise as therapeutics for prevention and treatment of ovarian cancer metastasis.
PROTOCOL TABLE (as described by Inglese J, Shamu CE and Guy RK. 2007) SEQUENCE No. (e.g., 1, 2, 3, etc.); […] (e.g., Cells, Incubation, Reagent, etc.); VALUE; DESCRIPTION. 1; Cells; 4 uL; primary human omental fibroblast, black, clear bottom, low base, 1536-well Aurora assay plate. 2; Incubation; 48 hr; 37C. 3; Cells; 3 uL; 1,200 SKOV3ip1-GFP cells. 4; Compounds; 23nL; acoustic dispenser. 5; Incubation; 2 hr; room temperature. 6; Incubation; 16 hr; 37C. 7; Wash; 5 uL; 1x PBS. 8; Fixing; 5 uL; 4% paraformaldehyde (PFA). 9; Incubation; 15 min; room temperature 10; Wash, 5 uL; 1x PBS. 11; Detection; Fluorescence, excitation filter 488 nm, emission filter 509 nm. NOTES (numbers refer to Sequence numbers above) 1. For the 1,536-well format, 40 primary human omental fibroblasts and 400 mesothelial cells were seeded with 0.02 µg fibronectin and 0.02 µg collagen type I in 4 µL of growth media (2.3 mm2; Supplementary Fig. S1A). 2. Assay plates were incubated for 48 hours at 37 C. 3. After incubation, 1,200 SKOV3ip1-GFP were seeded in 3 µL of serum-free media (growth media minus FBS) on top of primary human omental cells. 4. Compounds or controls were added to each well immediately after the addition of the cancer cells. Compounds were screened in four doses (0.36-46 µmol/L), and the plates contained the positive control (Tomatine) in eight doses (0.035-75 µmol/L) and DMSO (equal volume controls) 5 - 6. The plates were incubated at room temperature for 2 hours and then at 37 degrees C for 16 hours. 7 - 10. Following incubation, the media were aspirated and each well washed with PBS (5 µL) and then fixed with 4% paraformaldehyde (PFA; 5 µL). After 15 minutes, the PFA solution was aspirated, PBS (5 µL) was added. 11. The number of GFP-labeled cells analyzed using a fluorescent cytometer TTP LabTech Acumen eX3 using 488 nm excitation filter and 509 nm emission filter. Data was normalized to the DMSO treated for negative and Tomatine treated wells for positive control. REFERENCES: Inglese J, Shamu CE and Guy RK, Reporting data from high throughput screening of small molecule libraries, Nature Chemical Biology, 2007, 3(8): 438-441. doi.org/10.1038/nchembio0807-438. Yasgar A, Shinn P, Jadhav A, Auld DS, Michael S, Zheng W, Austin CP, Inglese J and Simeonov A, Compound Management for Quantitative High-Throughput Screening. J. Assoc. Lab. Auto., 2008, 13: 79-89. doi: 10.1016/j.jala.2007.12.004.

Structure (SMILES)	activity change, negative = inhibition	outcome
COc1ccc(C(C(=O)Nc2ccc(C(C)C)cc2)N(C)C(=O)Cc2cccs2)cc1 (stereo not drawn)	inactive: -7.45%	
COc1cccc(NC(c2nnc(-c3ccccc3)o2)c2ccc(F)cc2Cl)c1 (stereo not drawn)	inactive: 2.11%	
COc1ccc(C(=O)NCC(c2cccnc2)N2CCN(c3ccccc3OC)CC2)cc1 (stereo not drawn)	inactive: -2.12%	
C#CC(C)(CC)NC(=O)Cn1nnc(-c2ccc(OCc3ccccc3Cl)cc2)n1 (stereo not drawn)		inactive
Cc1ccc(NC(=O)Cn2c(SCc3cccc(F)c3)nc3ccncc32)c(C)c1		inactive
CC(C)(C)c1ccc(C(=O)Nc2nc3nc(-c4ccccc4)cc(=O)n3[nH]2)cc1		inactive
COc1ccc(Br)cc1CNC(=O)CN1C(=O)CCCc2ccccc21		inactive
Cc1ccccc1OCC(=O)Nc1ccc(C(=O)OCc2cc(=O)n3c(C)csc3n2)cc1		inactive
Cc1ccc2oc(C(=O)Nc3nc(-c4ccc(F)cc4)ns3)c(C)c2c1		inactive
CCc1ccc(C(=O)c2cn(CC(=O)Nc3ccc4c(c3)OCCO4)c3ccc(CC)cc3c2=O)cc1	inactive: 8.92%	
CCCN(CCC)C(=O)c1c[nH]c2ccc(S(=O)(=O)N(C)c3ccc(OCC)cc3)cc2c1=O	inactive: 2.39%	
Cc1c(CCC(=O)NCc2ccc(F)cc2)c(=O)oc2cc(O)ccc12	inactive: 9.48%	
COc1ccc(CCNC(=O)c2ccc3c(Cl)c4c(nc3c2)CCCC4)cc1OC	inactive: 123%	
COCCCNC(=O)C1CCCN(c2ncnc3onc(C)c23)C1 (stereo not drawn)	inactive: -32.4%	
COc1ccc(Cn2c(CNC(=O)Cc3cccc([N+](=O)[O-])c3)nc3cccnc32)cc1	inactive: -2.62%	
CC(=O)N1CCN(c2nc3c(F)cc(F)cc3s2)CC1	inactive: -0.582%	
COc1ccc(CNC(=O)CSCc2cnn(-c3ccccc3)c2-n2cccc2)cc1OC		inactive
Cc1cccc(N2CCN(C(=O)c3cc4c(=O)[nH]c5ccc(C)cc5c4s3)CC2C)c1 (stereo not drawn)	inactive: 3.18%	
COc1ccc(C2c3c(oc4cc(C)cc(C)c4c3=O)C(=O)N2Cc2ccco2)cc1OC (stereo not drawn)	inactive: 3.98%	
COc1cccc(NC(=O)CSC2=Nc3ccccc3C3=NC(CC(=O)NCc4cccs4)C(=O)N23)c1 (stereo not drawn)	inactive: 6.64%	
CCOC(=O)Cn1c(=O)n(CC2CCCO2)c2nc(-c3ccccc3Cl)nc(C(N)=O)c21 (stereo not drawn)	inactive: -15.3%	
Cc1cc(C)cc(NC(=O)c2sc3nc[nH]c(=O)c3c2C)c1		inactive
O=C(CCCn1c(=O)c2cccn2c2cccnc21)Nc1ccccc1C(F)(F)F	inactive: -7.65%	
Cc1ccc(CNC(=O)c2c(-c3ccc(Br)cc3)noc2C)o1	inactive: 4.53%	

Structure (SMILES)	activity change, negative = inhibition	outcome
CCOc1ccccc1NC(=O)C1=C(C)Nc2ncnn2C1c1sccc1C (stereo not drawn)		inactive
CC1=C(C(=O)Nc2ccccc2C)C(c2cccs2)n2nc(SCc3cc(C)ccc3C)nc2N1 (stereo not drawn)		inactive
O=c1c(N2CCc3ccccc3C2)csc2ccc(F)cc12	inactive: 9.52%	
CCOc1ccc(N(CC)C(=O)c2noc3c2COc2ccc(C)cc2-3)cc1		inactive
COc1ccccc1C(=O)Nc1c(C(=O)c2ccccc2)oc2ccccc12		inactive
CCOC(=O)c1ccc(CN(Cc2ccc(OC)cc2)S(=O)(=O)c2cccc(C(F)(F)F)c2)cc1	inactive: 2.35%	
COc1ccc(CCNC(=O)c2c(O)nc3c(C)cccn3c2=O)cc1OC	inactive: 6.89%	
COc1ccc(C)cc1NC(=O)c1ccc2nc(Cc3ccccc3)oc2c1	inactive: -12.2%	
CCn1c2c(c(=O)n3ncc(C(=O)Nc4ccc(C(=O)OC)cc4)c13)CN(Cc1ccc(OC)cc1)CC2	inactive: -2.96%	
Cc1coc2c1c(C)cc1oc(=O)c(CC(=O)NCCc3ccc(Cl)cc3)c(C)c12	inactive: 9.54%	
Cc1ccc(NC(=O)C(=O)NCC(c2cccnc2)N2CCN(C)CC2)cc1 (stereo not drawn)	inactive: -8.04%	
O=C(NCCc1ccc(Cl)cc1)C(=O)NCC(c1ccco1)S(=O)(=O)c1ccccc1 (stereo not drawn)	inactive: 2.86%	
Cc1c(C(=O)NCc2ccccc2)oc2ccc(S(=O)(=O)N3CCC(C)CC3)cc12	inactive: -6.41%	
CCCn1c(/C=C/c2ccccc2)nc2ccccc21	inactive: -0.912%	
CCOc1ccc(CC(=O)NCCS(=O)(=O)N2CCN(c3ccc(OC)cc3)CC2)cc1		inactive
CCn1c2ccccc2c2cc(CN3CCN(Cc4ccc(OC)c(OC)c4)CC3)ccc21	inactive: -23.5%	
COc1ccc(N2CCN(C(=O)CSc3nc4ccccc4nc3Cc3ccc(Cl)cc3)CC2)cc1		inactive
Cc1c(C(=O)NCCc2ccc(Cl)cc2)cccc1-n1cnc2cccnc21	inactive: -9.75%	
COc1ccc(N2CCN(C(=O)c3cc(-c4ccc(C)c(F)c4)on3)CC2)cc1	inactive: -2.87%	
COc1ccc(NC(=O)c2c(N)c(C(=O)c3ccc(OC)cc3)n3ccccc23)cc1		inactive
COc1ccc(-n2c(SCC(=O)NCc3ccccc3)nc3c([nH]c4ccccc43)c2=O)cc1	inactive: -8.96%	
CC(C)N(C(=O)Cn1cc(S(=O)(=O)Cc2ccc(Cl)cc2)c2ccccc21)C(C)C	inactive: 4.73%	
Nc1nn(-c2ccccc2)nc1C(=O)OCc1c(F)cccc1Cl	inactive: -0.358%	
Cc1ccc(N(Cc2cccs2)C(=O)c2ccco2)cc1	inactive: -33.5%	
